Results taken from PubChem BioAssay AID624296 (National Center for Advancing Translational Sciences (NCATS), 2012).
Among all 350,000 compounds or so, about 9,900 (2.8%) were called active. Inconclusive means that the source gave no clear call. Such entries were picked first, then a sample of the others. Calls come from the whole dose curve; as a rule, active = well fitted activation curve with a large enough effect; inconclusive = small, poorly fitted or top-dose-only effect; inactive = no such curve, though single readings can be large or run the other way. Potencies of inconclusive entries are left out as doubtful fits.

Experiment: A quantitative high throughput screen for small molecules that induce DNA re-replication in MCF 10a normal breast cells. Note: nearly all actives have a fitted effect of over 50% in size.
Details: MCF 10A DNA re-replication, Hoechst nuclear intensity, 48 h; series mostly up to 46.1 µM
Potency is the fitted concentration of half-maximal effect; tags give direction and shape of the fitted curve.

Row | SMILES | Potency
1 | CN1CCN(C(=O)CCN2C(=O)/C(=C/c3ccc(F)cc3)SC2=S)CC1 | inconclusive [activator, partial curve]
2 | Clc1nssc1=Nc1nncs1 | inconclusive [activator, single point]
3 | COc1c(OC(C)=O)ccc(/C=C/c2ccc3ccccc3n2)c1[N+](=O)[O-] | inconclusive [activator, single point]
4 | CC(C)CCC1(CCNC(C)c2cccs2)CCOC(C)(C)C1 (configuration not stated) | inconclusive [activator, single point]
5 | O=C(C1CCC1)N1CCc2cc(S(=O)(=O)NCCN3CCN(c4ccccc4F)CC3)ccc21 | inconclusive [activator, partial curve]
6 | CC(=O)/C(=C/N(C)C)C(=O)Nc1ccc(Cl)cc1Cl | active: 18.4 µM
7 | CN1c2ccccc2C(O)=C(C(=S)Nc2ccc(F)c(Cl)c2)S1(=O)=O | inconclusive [activator, single point]
8 | Cc1[nH]c(-c2ccc(F)cc2)cc1C(=O)N1CCN(c2ccc(Cl)cc2)CC1 | active: 5.8 µM
9 | CCOCCCn1c(=NC(C)=O)c(C(=O)OCC)cc2c(=O)n3ccccc3nc21 | inactive
10 | O=C(O)C1CCCCC1C(=O)NCCc1ccc(F)cc1 (configuration not stated) | inactive
11 | CC(C)CNC(=S)NC1CC2CCC(C1)N2Cc1ccccc1 (configuration not stated) | inactive
12 | Cc1onc(-c2ccccc2)c1C(=O)NCc1ccc2c(c1)OCO2 | inconclusive [activator, single point]
13 | Fc1ccc(-c2cc(C(F)(F)F)nc(NCc3cccs3)n2)cc1 | inconclusive [activator, single point]
14 | Cc1ccc(NC(=O)/C=C/c2ccc([N+](=O)[O-])s2)cc1 | active: 5.8 µM
15 | CC1(C)OC2OC(C(=O)N/N=C/c3cc(Br)ccc3O)C3OC(C)(C)OC3C2O1 (configuration not stated) | inconclusive [activator, single point]
16 | Cc1ccc(S(=O)(=O)CNC(=S)c2cccc(C)c2)cc1 | inactive
17 | COc1cccc(NC(=O)C2CCN(S(=O)(=O)c3ccc4c(c3)NC(=O)C(C)S4)CC2)c1 (configuration not stated) | inconclusive [activator, single point]
18 | C=CCNC(=O)c1ccc(-c2cccc([N+](=O)[O-])c2)o1 | inconclusive [activator, full curve, poor fit]
19 | COc1cc(Br)c(CNc2cc(C)ccc2C)cc1OC | inconclusive [activator, single point]
20 | Cc1cccc(C(=O)N2CCN=C2SCc2ccc([N+](=O)[O-])cc2)c1 | inactive
21 | CC(c1ccco1)N(C(=O)c1cc(Cl)cc(Cl)c1)c1ccccn1 (configuration not stated) | inactive
22 | OCC1(Cc2ccc(Cl)cc2)CCN(Cc2ccc(Oc3ncccn3)cc2)CC1 | inconclusive [activator, single point]
23 | CCN(CC)C(=S)Nc1ccc(OC)cc1 | inactive
24 | COC(=O)c1ccccc1Sc1ncnc2onc(C)c12 | inconclusive [activator, partial curve, poor fit]

Row | SMILES | Potency
25 | Cc1cccc(C(=O)OC(C)C(=O)NCC2CCCCC2)c1O (configuration not stated) | inactive
26 | CC(C)(C)C(=O)OCc1nc(-c2ccc3c(c2)OCCO3)cs1 | inactive
27 | CCN(c1ccc(C)cc1C)S(=O)(=O)c1nnc(NC(=O)C(C)C)s1 | inconclusive [activator, partial curve, poor fit]
28 | O=[N+]([O-])c1cccc(/C=N\N=C2c3ccccc3-c3ccccc32)c1O | inactive
29 | O=C(NCCCN1CCCCC1)c1ccc(CS(=O)c2ccc(Cl)cc2)o1 (configuration not stated) | inconclusive [activator, full curve, poor fit]
30 | Cc1ccc(CN(C(=O)CNC(=O)c2cccs2)C(C(=O)NCC2CCCO2)c2ccccc2)cc1 (configuration not stated) | inconclusive [activator, single point]
31 | Cc1ccc(NC(=S)N2CCCCCC2)c(C)c1 | inactive
32 | CCOC(=O)C1CCCN(C(=O)c2ccc3c(=O)n(CCOC)c(=S)[nH]c3c2)C1 (configuration not stated) | inconclusive [activator, full curve, poor fit]
33 | CCOc1ccc(NC(=O)CN2CCN(CC(=O)Nc3ccc(Cl)c(C(F)(F)F)c3)CC2)cc1 | inconclusive [activator, single point]
34 | CCOC(=O)[C@H]1[C@H]2COc3ccc(Cl)cc3[C@@H]2N2C(=O)[C@@H](CO)NC(=O)[C@@]12C | inactive
35 | COc1ccc(C2C3=C(Nc4ncnn42)c2ccccc2CCC3)cc1 (configuration not stated) | inconclusive [activator, partial curve, poor fit]
36 | CCOCCCNC(=O)c1cc2c(=O)n(CC)c3ccccc3c2s1 | active: 23.1 µM
37 | O=[N+]([O-])c1ccc(N2CCN(Cc3ccncc3)CC2)cc1 | inactive
38 | CC(=O)/C(N=Nc1cc2c(c([N+](=O)[O-])c1C)C(C)(C)CC2(C)C)=C(\C)O | inactive
39 | Cc1ccc(N2C(=O)[C@@H]3C(c4cccnc4)=NO[C@@H]3C2=O)cc1 | inactive
40 | O=C(Nc1ccccc1)Nc1ccccn1 | inactive
41 | COc1cccc2cc(C(C)N(CCCN3CCOCC3)C(=S)Nc3ccccc3C)oc12 (configuration not stated) | inactive
42 | Nc1cc(=O)[nH]c(SCC(=O)Nc2ccc(Cl)c(Cl)c2)n1 | inconclusive [activator, partial curve, poor fit]
43 | O=C(CCSc1ccc(Br)cc1)c1ccc(O)cc1 | inconclusive [activator, partial curve, poor fit]
44 | CCC1=[N+](CC(=O)c2ccc(C)cc2)CCn2c(C)ccc21 | inconclusive [activator, single point]
45 | CC(C1CC2CCC1C2)n1c(COc2ccccc2F)nnc1SCC(N)=O (configuration not stated) | inconclusive [activator, partial curve, poor fit]
46 | COC(=O)CSc1ncnc2scc(-c3ccccc3)c12 | inactive
47 | O=C(COc1cccc2c1CCN(Cc1ccccc1)C2=O)N1CCCCC1 | inconclusive [activator, partial curve, poor fit]
